Laboratory results published in PubChem BioAssay AID720708 (National Center for Advancing Translational Sciences (NCATS), 2013).
Out of some 360,000 compounds screened, about 660 (0.18%) were called active. The inconclusive results got no clear call from the source; some entries with a clear call stand among them for comparison. The call rests on the fitted dose curve; in most records, active means well fitted inhibition curve with a large enough effect; inconclusive means small, poorly fitted or top-dose-only effect; inactive means no such curve, though single readings can be large or run the other way. Potencies of inconclusive entries are left out as doubtful fits.

Target: Rap guanine nucleotide exchange factor 4 (Homo sapiens) (UniProt Q8WZA2)
Chain of UniProt Q8WZA2 (Q8WZA2 whole entry, looked up): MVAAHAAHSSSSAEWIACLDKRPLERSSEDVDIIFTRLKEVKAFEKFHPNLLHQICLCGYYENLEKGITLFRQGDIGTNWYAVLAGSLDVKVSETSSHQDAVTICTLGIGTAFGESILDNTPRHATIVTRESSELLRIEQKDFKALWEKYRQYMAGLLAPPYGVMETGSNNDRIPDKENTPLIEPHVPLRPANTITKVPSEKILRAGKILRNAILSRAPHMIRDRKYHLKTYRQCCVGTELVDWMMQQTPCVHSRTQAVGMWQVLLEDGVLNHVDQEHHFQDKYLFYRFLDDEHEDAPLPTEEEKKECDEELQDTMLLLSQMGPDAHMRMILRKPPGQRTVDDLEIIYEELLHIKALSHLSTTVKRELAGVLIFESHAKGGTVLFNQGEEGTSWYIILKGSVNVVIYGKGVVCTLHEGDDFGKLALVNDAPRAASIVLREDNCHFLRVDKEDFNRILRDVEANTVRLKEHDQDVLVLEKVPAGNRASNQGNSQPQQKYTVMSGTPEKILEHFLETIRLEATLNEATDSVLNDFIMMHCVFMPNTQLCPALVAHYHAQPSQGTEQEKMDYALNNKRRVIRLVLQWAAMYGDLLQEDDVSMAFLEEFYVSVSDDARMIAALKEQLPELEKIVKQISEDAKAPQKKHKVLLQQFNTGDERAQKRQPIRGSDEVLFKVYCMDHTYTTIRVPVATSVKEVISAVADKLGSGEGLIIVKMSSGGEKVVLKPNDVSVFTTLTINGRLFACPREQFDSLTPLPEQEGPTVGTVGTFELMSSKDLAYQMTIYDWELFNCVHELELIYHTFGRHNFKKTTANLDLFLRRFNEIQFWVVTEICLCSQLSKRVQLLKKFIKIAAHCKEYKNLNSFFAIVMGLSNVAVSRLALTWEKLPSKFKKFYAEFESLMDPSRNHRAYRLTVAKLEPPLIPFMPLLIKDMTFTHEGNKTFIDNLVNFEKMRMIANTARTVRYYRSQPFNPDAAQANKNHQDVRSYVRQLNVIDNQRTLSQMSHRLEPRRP
Experiment: qHTS for Antagonist of cAMP-regulated guanine nucleotide exchange factor 2 (EPAC2): primary screen; further: nearly all actives have a fitted effect of over 45% in size
Details: EPAC2 GEF exchange of Rap1B-BODIPY-GDP, fluorescence; activity, negative = inhibition: at 114 µM (top of the series) unless noted
On the % scale 0 is the no-effect control and ±100 the full control effect; potency means the concentration at half of the fitted maximal effect; tags describe the fitted curve by direction and shape.

| Compound | activity, negative = inhibition | Potency |
| --- | --- | --- |
| CCOC(=O)N1CCN(C(=O)CNC(=O)c2nn(-c3ccc(OC)c(Cl)c3)c(=O)c3ccccc23)CC1 | inconclusive: -17.9% [inhibitor] |  |
| O=C(COc1ccccc1CNC[C@H]1O[C@@H](n2ccc(=O)[nH]c2=O)[C@H](O)[C@@H]1O)N1CCCCC1 |  | inconclusive [inhibitor, single point] |
| O=C(N/N=C/c1cc(Cl)cc([N+](=O)[O-])c1O)c1ccccc1NS(=O)(=O)c1cccs1 |  | inconclusive [inhibitor, partial curve] |
| c1coc(-c2nc(-c3ccncc3)no2)c1 |  | inactive |
| CCOc1ccc2nc(NC(=O)CS(=O)(=O)c3ccc(C)cc3)sc2c1 |  | inconclusive [inhibitor, full curve, poor fit] |
| C=CCC1CCCCC1=C(C#N)c1ccccc1 (stereo not drawn) |  | inconclusive [inhibitor, partial curve] |
| COc1ccc(Cn2nnnc2C(c2ccc(C)cc2)N2CCN(C3CCCC3)CC2)cc1 (stereo not drawn) |  | inactive |
| CCc1cccc(NS(=O)(=O)c2ccc3c(c2)N(C)CCO3)c1 |  | inconclusive [inhibitor, partial curve] |
| N#CC(c1ccccc1)C(CC(=NO)c1ccccc1)c1ccccc1 (stereo not drawn) |  | inconclusive [inhibitor, full curve] |
| Cc1ccc(S(=O)(=O)/N=C2\C=C(NS(=O)(=O)c3ccc(C)cc3)C(=O)c3ccccc32)cc1 |  | inconclusive [inhibitor, partial curve] |
| O=S(=O)(Cc1noc(-c2ccc(OC(F)(F)F)cc2)n1)c1ccc(F)cc1 |  | inconclusive [inhibitor, single point] |
| COC(=O)[C@]12CCCCC=C1N(Cc1ccco1)C(=O)[C@H](CC(=O)NCc1cccc3ccccc13)C2 |  | inconclusive [inhibitor, single point] |
| Cc1ccc(-n2cnc3ncnc(-c4ccccc4)c32)cc1 |  | inconclusive [inhibitor, single point] |
| O=C(OCc1nnc(-c2ccccc2)o1)c1ccc(-n2cnnn2)cc1 |  | inconclusive [inhibitor, single point] |
| COc1cc(OC)cc(C2=Cc3ccc(OC)cc3C(CC(C)=O)N2c2ccc(C#CCCO)cc2)c1 (stereo not drawn) |  | inconclusive [inhibitor, single point] |
| Cc1ccc2oc(=O)n(Cc3ccc(F)cc3)c2c1 |  | inconclusive [inhibitor, single point] |
| COc1cccc(-c2coc3cc4oc(=O)c(CC(=O)O)c(C)c4cc23)c1 |  | inconclusive [inhibitor, partial curve] |
| COC(=O)N/N=C1\CCCc2ccccc21 |  | inactive |
| O=[N+]([O-])c1cc(/C=N/N2CCOCC2)cs1 |  | inactive |
| O=C(CN1CCCCC1)Nc1ccc(S(=O)(=O)N2CCOCC2)cc1 |  | inconclusive [inhibitor, single point] |
| O=C(NCc1ccco1)c1cnn2c1NC(c1ccccc1)CC2C(F)(F)F (stereo not drawn) |  | inactive |
| COc1ccc(N2C(=NC(=O)CC3CCCCC3)SC3CS(=O)(=O)CC32)cc1 (stereo not drawn) |  | inactive |
| O=C1CSC(=Nc2ccccc2)N1Cc1ccccc1 |  | inconclusive [inhibitor, partial curve] |

| Compound | activity, negative = inhibition | Potency |
| --- | --- | --- |
| O=C1NC(=O)C(=Cc2ccc(Cl)cc2Cl)S1 |  | inconclusive [inhibitor, partial curve] |
| CCN(c1ccccc1)S(=O)(=O)c1cc(C(=O)O)ccc1C |  | inactive |
| Nc1nc(CSc2ccc(Cl)cc2)nc(N2CCCCC2)n1 |  | inconclusive [inhibitor, full curve] |
| CCCCCn1nc(C(=O)OCC(=O)c2c(N)n(C)c(=O)n(C)c2=O)c2ccccc2c1=O |  | inconclusive [inhibitor, partial curve] |
| COc1ccccc1CCNC(=O)c1cc(-c2ccccn2)nc2ccccc12 |  | inconclusive [inhibitor, partial curve] |
| CNC(=O)c1c(NC(=O)C2=COCCO2)sc2c1CCN(C(=O)OC)C2 |  | inactive |
| N#Cc1c(-c2ccccc2)nc(SCC(=O)N2c3ccccc3Sc3ccccc32)[nH]c1=O |  | active: 8.91 µM |
| O=C(NC(=S)Nc1ccc(S(=O)(=O)Nc2nccs2)cc1)c1ccc(F)c(F)c1 |  | inactive |
| O=C(N/N=C/c1ccncc1)c1ccc(NC(=O)c2cccc(Cl)c2)cc1 |  | inconclusive [inhibitor, partial curve] |
| CCOC(=O)C1=C(C)N=c2s/c(=C\c3ccc(C(=O)O)cc3)c(=O)n2C1c1ccc(F)cc1 (stereo not drawn) |  | inconclusive [inhibitor, partial curve] |
| Cc1cc(-c2ccc(C(C)C)c(S(=O)(=O)N3CCC(C)CC3)c2)on1 |  | inconclusive [inhibitor, partial curve] |
| Cc1ccc(NCc2ccccc2O)c(C)c1 |  | inconclusive [inhibitor, partial curve] |
| CCOc1ccc(/C=C2\SC(=S)N(NS(=O)(=O)c3ccc(C)cc3)C2=O)cc1OC |  | inconclusive [inhibitor, partial curve] |
| COc1cccc(CNc2ccc(S(=O)(=O)Nc3nccs3)cc2)c1O |  | inconclusive [inhibitor, partial curve] |
| CCc1ccc(OC)c(S(=O)(=O)Nc2ccc(Cc3ccncc3)cc2)c1 |  | inconclusive [inhibitor, full curve, poor fit] |
| CN(C)C(=O)CNC(=O)CN1C(=O)NC2(CCCc3sccc32)C1=O (stereo not drawn) |  | inactive |
| CCC1C(=O)NCCN1Cc1nc(-c2ccc(C)s2)oc1C (stereo not drawn) |  | inconclusive [inhibitor, full curve, poor fit] |
| O=C(c1cc(COc2ccc(F)cc2Cl)on1)N1C[C@H]2CC[C@H]1C2 |  | inconclusive [inhibitor, full curve, poor fit] |
| O=S(=O)(NCCCc1ccccc1)c1ccc(Br)cc1 |  | inconclusive [inhibitor, partial curve] |
| COc1ccc(-c2nc3ccc(C)cn3c2CC(C)(C)C)cc1OC |  | inconclusive [inhibitor, partial curve] |
| NC(=O)N1CCN(CCCN2c3ccccc3Sc3cc(Cl)ccc32)CC1 |  | inconclusive [inhibitor, partial curve] |
| CCCCC(=O)Nc1ccccc1Oc1ccccc1 |  | inconclusive [inhibitor, partial curve] |
| Fc1ccccc1C1c2[nH]c3ccccc3c2CCN1Cc1ccoc1 (stereo not drawn) |  | inconclusive [inhibitor, full curve] |

| Compound | activity, negative = inhibition | Potency |
| --- | --- | --- |
| COc1ccc2c(c1)C(CC(C)=O)N(c1ccc(-c3cccnc3)cc1)C(c1ccsc1)=C2 (stereo not drawn) |  | inconclusive [inhibitor, full curve] |
| Cc1ccc(C)c(OCCC(=O)OCC(=O)NC(=O)NC2CCCCC2)c1 |  | inconclusive [inhibitor, full curve] |
| CCCCOc1cccc(C2C(C(=O)c3ccc(C)o3)=C(O)C(=O)N2c2nnc(C)s2)c1 (stereo not drawn) |  | inconclusive [inhibitor, partial curve] |
| O=C(O)c1cc2ccccc2cc1Nc1ccccc1 |  | inconclusive [inhibitor, partial curve] |
| O=C(CSC(=S)N1CCCCC1)c1ccccc1 |  | inactive |
| CCCCCCCCn1cnc2c(N)c(C)c(C)cc21 |  | inconclusive [inhibitor, partial curve] |
| Fc1ccc(-c2csc(-c3ccc(C4SCCS4)cc3)n2)cc1F |  | inconclusive [inhibitor, partial curve] |
| CCCCOC(=O)C1C2C=C[C@]3(CN(CCCOC)C(=O)[C@H]13)O2 (stereo partly drawn) |  | inconclusive [inhibitor, partial curve] |
| CCN(CC)CCP(=O)(c1ccccc1)c1ccccc1 |  | inactive |
| COCc1cc(Sc2ccc(OC)cc2)nc(-c2ccccc2)n1 |  | inconclusive [inhibitor, full curve] |
| CC(C)(C)Nc1nc(Cl)nc(NCc2ccccc2)n1 |  | inconclusive [inhibitor, partial curve] |
| CC(=O)n1cc(N(C(=O)CCl)c2ccc(Cl)cc2)c2ccccc21 |  | inconclusive [inhibitor, partial curve] |
| O=C(c1ccccc1)c1cc2ccccc2oc1=O |  | inconclusive [inhibitor, partial curve, poor fit] |
| NNC(=S)NC1CCCCCCCCCCC1 |  | inconclusive [inhibitor, partial curve] |
| Brc1ccc(C2Nc3cccc4cccc(c34)N2)cc1 |  | inconclusive [inhibitor, full curve] |
| CN(CC(=O)Nc1ccccc1Sc1ccccc1)C1CCCCC1 |  | active: 50.1 µM |
| COc1ccccc1N1CCN(/N=C/C(Cl)=C/c2ccccc2)CC1 |  | inactive |
| CC(=O)Nc1ccc(SCC(=O)c2cc(C)ccc2C)cc1 |  | inconclusive [inhibitor, single point] |
| Cc1cc(C)nc(-n2nc(C)c(Oc3ccccc3O)c2C)n1 |  | inconclusive [inhibitor, single point] |
| Cc1ccc(C2CC(=O)N3CN(Cc4ccco4)CSC3=C2C#N)cc1 (stereo not drawn) |  | inactive |
| CCCOC(=O)C1=C(C)N(C)C(=O)NC1c1cc2c(cc1[N+](=O)[O-])OCO2 (stereo not drawn) |  | inactive |
| Cc1ccc(CS(=O)(=O)c2ncc(Cl)c(C(=O)Nc3ccc(OC(F)F)cc3)n2)cc1 |  | inactive |
